{"source": "patent US20150087619A1", "about": "“METHOD OF MITIGATING VIRUS ASSOCIATED END-ORGAN DAMAGE” (CHIMERIX, INC., priority 2012, published 2015)", "test_system": "VZV-BAC-Luc strain", "format": "in vivo, mouse"}
{"smiles": "CCCCCCCCCCCCCCCCOCCCOP(=O)(O)COC(CO)Cn1ccc(N)nc1=O", "note": "(centres unmarked) [HDP-CDV]", "values": [{"measurement": "VZV spread", "setting": "1.25, 2.5, and 5.0 mg/kg, 8 doses by oral gavage once daily starting 2 dpi, 1-way ANOVA, p<0.0001", "value": "effective and significantly prevented VZV spread"}, {"measurement": "efficacy in vivo", "setting": "eight doses of 5 mg/kg delayed to 2 dpi or 4 dpi, and 4 doses from 2-5 dpi", "value": "effective"}]}
